{"source": "PubChem BioAssay AID1508642", "about": "(National Center for Advancing Translational Sciences (NCATS), 2021)", "note": "Out of some 43,000 compounds screened, about 200 (0.47%) were called active. Roughly 12% stayed inconclusive and do not appear here. Calls come from the whole dose curve; as a rule, active = well fitted cell-killing curve with a large enough effect; inconclusive = small, poorly fitted or top-dose-only effect, or effect the other way; inactive = flat fitted curve, though single readings scatter. Some of the results follow. % is set by controls: 0 for no effect and ±100 for the full control effect.", "data": [{"assay": "Cell viability qHTS assay in S16 Pmp22-F2sN cells; note: nearly all actives have a fitted effect of over 65% in size", "settings": "S16 Pmp22-F2sN Schwann cells (luciferase reporters placed in the Pmp22 gene) viability, CellTiter-Glo, 24 h; series mostly up to 57.5 µM; activity change, negative = cytotoxicity: at the top concentration", "summary_of_the_method": "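S16 Schwann cells carrying the Pmp22-F2sN reporter, seeded in 1536-well format, were exposed to library compounds for 24 h at 37C. Viability was read as CellTiter-Glo luminescence after 15 min at room temperature.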", "values": [{"smiles": "Cc1nc2ccccc2c(=O)n1-c1ccc(NC(=O)c2ccc([N+](=O)[O-])cc2)cc1", "activity change, negative = cytotoxicity": "inactive: -1.44%"}, {"smiles": "COc1ccc(N2CCN(C(=O)CCc3c(C)nc4cc(-c5ccc(Cl)cc5)nn4c3C)CC2)cc1", "activity change, negative = cytotoxicity": "inactive: -11.2%"}, {"smiles": "COc1ccc(-c2[nH]nc3nc(-c4cc(OC)c(OC)c(OC)c4)cc(C(=O)O)c23)cc1", "activity change, negative = cytotoxicity": "inactive: 5.33%"}, {"smiles": "CCC(=O)NCC(c1ccc2c(c1)OCO2)N1CCN(c2ccccc2)CC1", "note": "(stereo not drawn)", "activity change, negative = cytotoxicity": "inactive: 11.3%"}, {"smiles": "COc1ccc(C(=O)Nc2nnc(S(=O)(=O)N(C)c3ccc(Cl)cc3)s2)cc1OC", "activity change, negative = cytotoxicity": "inactive: -0.0829%"}, {"smiles": "Cc1ccccc1CNC(=O)C(=O)NCC(c1ccco1)S(=O)(=O)c1ccccc1", "note": "(stereo not drawn)", "activity change, negative = cytotoxicity": "inactive: -2.47%"}, {"smiles": "Cc1ccc(CCNC(=O)c2cn(C)c3ccc(S(=O)(=O)N4CCCCC4)cc3c2=O)cc1", "activity change, negative = cytotoxicity": "inactive: -20.6%"}, {"smiles": "CCCS(=O)(=O)N1CCCC(C(=O)NCCCOC)C1", "note": "(stereo not drawn)", "activity change, negative = cytotoxicity": "inactive: 10.2%"}, {"smiles": "COCCCNC(=O)CN1C(=O)COc2ccc(S(=O)(=O)N3CCCC3)cc21", "activity change, negative = cytotoxicity": "inactive: 0.179%"}, {"smiles": "Cc1ccc(NC(=O)Cn2c(=O)c3cc(Cl)ccc3n3nncc23)cc1", "activity change, negative = cytotoxicity": "inactive: -2.09%"}, {"smiles": "Cc1n[nH]c(C)c1S(=O)(=O)N(CC(=O)NC(C)c1ccccc1)c1ccc(C(C)C)cc1", "note": "(stereo not drawn)", "activity change, negative = cytotoxicity": "inactive: -2.79%"}, {"smiles": "COc1ccc(C(=O)NCCn2cc(SCC(=O)NCCc3ccc(OC)c(OC)c3)c3ccccc32)cc1", "activity change, negative = cytotoxicity": "inactive: -21.1%"}, {"smiles": "COc1cccc(NC(=O)Cn2cnc3c(nc4n3CCCCC4)c2=O)c1", "activity change, negative = cytotoxicity": "inactive: 0.101%"}, {"smiles": "COCCCNc1ncnc2onc(-c3ccc(F)cc3)c12", "activity change, negative = cytotoxicity": "inactive: -4.54%"}, {"smiles": "CS(=O)(=O)N1CCc2cc(C(=O)NCCc3ccccc3)ccc21", "activity change, negative = cytotoxicity": "inactive: 0.7%"}, {"smiles": "Cc1ccc(-c2cc(C(=O)N3CCN(S(=O)(=O)c4ccc(Br)cc4)CC3)[nH]n2)cc1C", "activity change, negative = cytotoxicity": "inactive: -12.5%"}, {"smiles": "CC1=C(c2ccc(C)c(C)c2)S(=O)(=O)N=C1N1CCC(C(=O)NCCc2ccco2)CC1", "activity change, negative = cytotoxicity": "inactive: -16.7%"}, {"smiles": "COc1cccc(C(=O)Nc2ccccc2C(=O)OCc2cc(=O)n3c(C)csc3n2)c1", "activity change, negative = cytotoxicity": "inactive: 2.38%"}, {"smiles": "COc1ccc(NC(=O)Cn2c(C)cc3ccccc3c2=O)c(OC)c1", "activity change, negative = cytotoxicity": "inactive: 13.5%"}, {"smiles": "Cc1nn(-c2nc(-c3ccc(F)cc3)cc(C(F)(F)F)n2)c(C)c1Br", "activity change, negative = cytotoxicity": "inactive: -5.63%"}, {"smiles": "COC(=O)c1cc(C)nc2c1c(=O)nc(SCc1cccc(C)c1)n2C1CC1", "activity change, negative = cytotoxicity": "inactive: 12.1%"}, {"smiles": "CC1=Nc2cc(C(=O)NC3CCCC3)ccc2Sc2ccc(C)cc21", "activity change, negative = cytotoxicity": "inactive: 1.9%"}, {"smiles": "COc1ccccc1OCC(=O)N(Cc1ccc(Cl)cc1)CC1CCCO1", "note": "(stereo not drawn)", "activity change, negative = cytotoxicity": "inactive: 0.17%"}, {"smiles": "CCc1cccc(CC)c1NC(=O)c1ccc2c(c1)CCN2S(=O)(=O)c1ccccc1", "activity change, negative = cytotoxicity": "inactive: -1.73%"}, {"smiles": "CC(=O)c1ccc(NC(=O)CC2Nc3cccc4cccc(c34)NC2=O)cc1", "note": "(stereo not drawn)", "activity change, negative = cytotoxicity": "inactive: 1.06%"}, {"smiles": "Cc1cccc(NC(=O)CN2C(=O)c3cccnc3Oc3ccc(Cl)cc32)c1C", "activity change, negative = cytotoxicity": "inactive: -0.0463%"}, {"smiles": "CSc1ccc(CCNC(=O)CCCn2nc(C)c3sc4ccccc4c3c2=O)cc1", "activity change, negative = cytotoxicity": "inactive: 3.87%"}, {"smiles": "CCOc1ccc(CNC(=O)CCS(=O)(=O)c2cc3c(cc2Cl)NC(=O)CO3)cc1OC", "activity change, negative = cytotoxicity": "inactive: 2.48%"}, {"smiles": "CCOC(=O)c1ccccc1NC(=O)Nc1cc2c(cc1N1CCCCC1)n(C)c(=O)n2C", "activity change, negative = cytotoxicity": "inactive: 3.47%"}, {"smiles": "Cc1nn(-c2ccc(F)cc2)c(-n2cccc2)c1C(=O)NCCCN1CCN(c2ccccc2F)CC1", "activity change, negative = cytotoxicity": "inactive: -4.42%"}, {"smiles": "COc1cccc(NC(=O)CCc2c(C)nc3c4cccnc4nn3c2C)c1", "activity change, negative = cytotoxicity": "inactive: -3.02%"}, {"smiles": "O=C(Nc1ccc(N2CCC(c3ccccc3)C2)c(C(=O)O)c1)c1ccc(Cl)cc1", "note": "(stereo not drawn)", "activity change, negative = cytotoxicity": "inactive: -2.49%"}, {"smiles": "CCOc1ccc(Oc2nc(NCC(C)C)nc(NC(C)(C)C)n2)nn1", "activity change, negative = cytotoxicity": "inactive: -4.72%"}, {"smiles": "COc1ccc(NC(=O)C(=O)NCCc2ccc(OC)c(OC)c2)c(OC)c1", "activity change, negative = cytotoxicity": "inactive: 7.78%"}, {"smiles": "COc1ccccc1CNc1nc2ccccc2c2nc(-c3cccnc3)nn12", "activity change, negative = cytotoxicity": "inactive: 19.2%"}, {"smiles": "COc1ccc(CNC(=O)C2CCN(C(=O)c3ccc(-n4ccc5ccccc54)s3)CC2)cc1", "activity change, negative = cytotoxicity": "inactive: -5.78%"}, {"smiles": "COc1ccc(CCNC(=O)c2cccc(-n3c(C)nc4cccnc43)c2)cc1OC", "activity change, negative = cytotoxicity": "inactive: 2.81%"}, {"smiles": "COc1ccc(-c2cc3nc(-c4ccc(Br)cc4)cc(C(F)(F)F)n3n2)cc1", "activity change, negative = cytotoxicity": "inactive: 5.61%"}, {"smiles": "COCCCNC(=O)c1cnn(-c2ccccc2Cl)c1C1CCN(C(=O)OC(C)(C)C)CC1", "activity change, negative = cytotoxicity": "inactive: -8.26%"}, {"smiles": "Cc1ccccc1OCC(=O)Nc1ccc2nc(SCC(=O)N(C)c3ccccc3)sc2c1", "activity change, negative = cytotoxicity": "inactive: -0.837%"}, {"smiles": "CC(C)(C)OC(=O)N1CCC(c2c(C(=O)N3CCN(c4ccc(Cl)cc4)CC3)cnn2-c2ccc(F)cc2F)CC1", "activity change, negative = cytotoxicity": "inactive: -17.3%"}, {"smiles": "COc1cccc(NC(=O)C2CCCN(c3nnc(-n4c(C)ccc4C)s3)C2)c1", "note": "(stereo not drawn)", "activity change, negative = cytotoxicity": "inactive: -10.7%"}, {"smiles": "COCCCn1c(=N)c(S(=O)(=O)c2ccccc2)cc2c(=O)n3cc(C)ccc3nc21", "activity change, negative = cytotoxicity": "inactive: 22.8%"}, {"smiles": "COc1ccccc1CNC(=O)CCCn1nc(C)c2sc3ccccc3c2c1=O", "activity change, negative = cytotoxicity": "inactive: 13.8%"}, {"smiles": "CCc1ccc(NC(=O)CSc2c(C)cnc3c2c(=O)n(C)c(=O)n3C)cc1", "activity change, negative = cytotoxicity": "inactive: 8.43%"}, {"smiles": "Cc1nc2sccn2c(=O)c1S(=O)(=O)NCc1ccc(F)cc1", "activity change, negative = cytotoxicity": "inactive: -8.61%"}, {"smiles": "Cn1c(=O)c2nc(SCC(=O)Nc3cc(Cl)cc(Cl)c3)n(C)c2n(C)c1=O", "activity change, negative = cytotoxicity": "inactive: -1.44%"}, {"smiles": "Cc1ccc(Cn2c(CNS(=O)(=O)c3ccc(C(C)(C)C)cc3)nc3cccnc32)cc1", "activity change, negative = cytotoxicity": "inactive: -11.7%"}]}]}
